Among the data in patent US20250223376A1 (VOYAGER THERAPEUTICS, published 2025) are Kd, koff and kon values, retold here.

In the assay the target is T1, HER2 ECD (human, UniProt P04626 fragment).
T1 construct: extracellular domain; also called HER2/neu; ErbB2
The experiment in a line: SPR Biacore 8K, Ab captured via anti-human IgG Fc, HER2 ECD analyte, 1:1 fit.

B1: HER-73 anti-HER2 bispecific antibody molecule (bispecific antibody)
chain 1: QVQLVQSGAEVKKPGASVKVSCKASGYSFTGYFINWVREAPGQGLEWMGHISSSYATSTYNQKFQGRVTFTVDTSSSTAYMELSSLRSEDTAVYYCVRSGNYEEYAMDYWGQGTLVTVSSASTKGPSVFPLAPSSKSTSGGTAALGCLVKDYFPEPVTVSWNSGALTSGVHTFPAVLQSSGLYSLSSVVTVPSSSLGTQTYICNVNHKPSNTKVDKKVE[left out - human IgG1 Fc]
chain 2: [left out - about 120 residues]GGGGSGGGGSGGGGS[left out - about 100 residues][left out - about 200 residues]
As a reminder, the Kd is the constant that tells how readily two partners part at equilibrium. Higher therefore signals lower affinity. One may read the koff as a measure of how fast the partners let go of each other. Read a high koff as fast dissociation. Usually kon stands for the second-order rate constant of association. A high value points to fast association. Consider B1, for which the Kd was 200 pM, the koff came out at 2.4e-05 s⁻¹ and the association rate constant (kon) is 130000 M⁻¹ s⁻¹.
